# Laboratory results from PMC4336329 (PLoS ONE, 2015).
# Screen size: about 310,000 compounds; about 14,000 (4.5%) showed an effect of 50% or more. The effect is printed as a negative number. The list shows a part of the results.
# Target: human ether-à-go-go-related gene (hERG) potassium channel (human, UniProt Q12809)
# Assay: primary screen, population patch clamp on CHO cells stably expressing hERG
# 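Also: peak tail current of the secondary pulse compared with the same well before compound.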
# Chain of human ether-à-go-go-related gene (hERG) potassium channel (Q12809 whole entry, looked up): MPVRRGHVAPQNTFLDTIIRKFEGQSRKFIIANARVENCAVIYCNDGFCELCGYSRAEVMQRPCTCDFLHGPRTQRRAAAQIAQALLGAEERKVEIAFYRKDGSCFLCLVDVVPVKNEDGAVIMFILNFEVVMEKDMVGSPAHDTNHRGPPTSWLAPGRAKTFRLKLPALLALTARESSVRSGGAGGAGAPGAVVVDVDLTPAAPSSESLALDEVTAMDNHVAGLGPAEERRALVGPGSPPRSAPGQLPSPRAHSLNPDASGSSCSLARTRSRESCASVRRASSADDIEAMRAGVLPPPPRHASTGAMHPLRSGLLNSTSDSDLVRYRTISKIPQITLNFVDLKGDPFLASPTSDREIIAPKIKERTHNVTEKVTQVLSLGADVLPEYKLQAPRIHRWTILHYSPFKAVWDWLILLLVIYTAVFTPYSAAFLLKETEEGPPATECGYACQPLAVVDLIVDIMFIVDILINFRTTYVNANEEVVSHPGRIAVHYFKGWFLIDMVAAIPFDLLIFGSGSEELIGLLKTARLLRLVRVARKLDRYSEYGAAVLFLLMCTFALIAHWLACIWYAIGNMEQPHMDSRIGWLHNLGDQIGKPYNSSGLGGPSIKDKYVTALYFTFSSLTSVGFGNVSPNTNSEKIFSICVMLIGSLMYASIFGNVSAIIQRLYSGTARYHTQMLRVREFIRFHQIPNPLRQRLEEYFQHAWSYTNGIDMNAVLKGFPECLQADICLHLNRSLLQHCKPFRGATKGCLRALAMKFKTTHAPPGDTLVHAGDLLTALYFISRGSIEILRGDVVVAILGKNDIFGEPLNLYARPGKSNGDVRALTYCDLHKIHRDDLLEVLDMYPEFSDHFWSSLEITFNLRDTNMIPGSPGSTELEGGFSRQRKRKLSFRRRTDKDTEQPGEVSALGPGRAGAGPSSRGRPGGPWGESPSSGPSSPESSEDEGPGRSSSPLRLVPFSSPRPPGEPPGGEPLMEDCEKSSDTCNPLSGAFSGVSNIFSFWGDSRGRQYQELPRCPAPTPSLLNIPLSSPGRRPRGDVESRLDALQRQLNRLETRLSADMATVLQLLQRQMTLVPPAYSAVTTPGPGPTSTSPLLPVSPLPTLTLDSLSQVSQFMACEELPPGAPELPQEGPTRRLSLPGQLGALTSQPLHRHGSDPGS
row,SMILES,"hERG current change (%, negative = inhibition) at 10uM [%]"
1,O=C(Nc1ccc(N2CCN(C(=O)c3ccco3)CC2)cc1)C(c1ccccc1)c1ccccc1,-11
2,COc1cc(C(=O)Nc2cccc(C)c2C)ccc1OCC(=O)N1CCOCC1,2.28
3,Cc1cccc(OCCn2c(NC(=O)c3ccco3)nc3ccccc32)c1,12.5
4,O=C(NNC1=NC2(CCCC2)Cc2ccccc21)c1cccnc1,38
5,COCCSc1nnc(NC(=O)C2CCN(C(=O)c3ccco3)CC2)s1,4.57
6,O=C(O)C/C(=C\c1cccc(NC(=O)c2ccccc2Cl)c1)c1nc2ccccc2s1,-6.18
7,O=S(=O)(Nc1ccccc1)c1ccc(-c2cnc(C3CC3)o2)cc1,6.13
8,O=C(CSCc1ccccc1)NCc1ccc2c(c1)OCO2,-20.3
9,CN(C(=O)COC(=O)c1cc(S(=O)(=O)N2CCOCC2)ccc1F)C1CCS(=O)(=O)C1 (stereo not shown),11.7
10,CC1CN(S(=O)(=O)c2cc(C(=O)N(CCc3ccccc3)Cc3ccccc3)ccc2Cl)CC(C)O1 (stereo not shown),-2.24
11,Cl.O=C1c2cccc3cccc(c23)C(=O)N1CCN1CCN(CC(O)COCc2ccc(Cl)cc2)CC1 (stereo not shown),-72.5
12,CS(=O)(=O)Oc1ccc2c(c1)O/C(=C\c1cccc([N+](=O)[O-])c1)C2=O,1.59
13,Cc1ccc(S(=O)(=O)Nc2ccccn2)cc1[N+](=O)[O-],15
14,COc1ccc(S(=O)(=O)N2CCN(C(=O)NCc3ccc(OC)c(OC)c3)CC2)cc1,9.37
15,COc1ccc(-n2c(O)c(/C=N/Nc3nc(C)cc(C)n3)c3ccccc3c2=O)cc1OC,14.6
16,O=C1NC(NS(=O)(=O)c2ccc(Cl)cc2)(C(F)(F)F)C(=O)N1c1ccccc1 (stereo not shown),3.95
17,Fc1ccc(CSc2nnc3ccc(-c4ccncc4)nn23)cc1,-70.1
18,O=C(NCCCn1ccnc1)c1ccc(Cl)c(S(=O)(=O)N2CCOCC2)c1,-4.59
19,Cc1ncc([N+](=O)[O-])n1S(=O)(=O)c1cc(Cl)ccc1Cl,18.3
20,CC(Sc1nc2sccc2c(=O)n1-c1ccccc1)C(N)=O (stereo not shown),6.66
21,O=c1[nH]c(C2CCN(S(=O)(=O)c3ccccc3)CC2)nc2c1nnn2Cc1c(F)cccc1Cl,-2.84
22,COCc1[nH]nc2c1C(c1sccc1C)C(C#N)=C(N)O2 (stereo not shown),-3.66
23,FC(F)(F)c1cc(C(F)(F)F)c2ccc(Oc3ccccc3)nc2n1,-4.18
24,COC(=O)c1sc(SC)c(S(=O)(=O)C(C)C)c1N/N=C(\C#N)S(=O)(=O)c1ccccn1,4.87
25,Cc1cc(C)c2c(N)c(C(=O)Nc3ccc(F)cc3)sc2n1,13.2
26,COc1ccccc1NC(=O)C1C2C=CC(O2)C1C(=O)O (stereo not shown),-0.963

row,SMILES,"hERG current change (%, negative = inhibition) at 10uM [%]"
1,CCOC(=O)C1=C(O)C(=O)N(Cc2ccccc2)C1,20.6
2,CCN(CC)S(=O)(=O)c1ccc(C(=O)Nc2nnc(NC(=S)Nc3ccccc3)s2)cc1,9.51
3,COc1ccc(C(=O)NCC(=O)N2CCC3(CC2)NCCc2[nH]cnc23)cc1,11.4
4,CCc1cc(CNC(=O)CC2C(=O)NCCN2Cc2cccc(OC)c2)on1 (stereo not shown),-11.4
5,CCC(c1nc2ccccc2c(=O)n1CCCn1ccnc1)N1C(=O)c2ccccc2C1=O (stereo not shown),-38.8
6,CC(=O)N(Cc1ccccc1)c1nc(-c2ccccc2)cs1,6.74
7,CCOc1ccc(S(=O)(=O)N(CC(=O)NC2CCCC2)c2ccc(F)cc2)cc1,10.8
8,Fc1ccc(-c2nnc(NC3=NCCCCC3)o2)cc1,-15.1
9,COc1ccccc1N1CCN(C2CCCN(C(=O)CCc3c(C)noc3C)C2)CC1 (stereo not shown),-7.57
10,c1cncc(-c2nc(NCc3ccco3)c3ccccc3n2)c1,-5.1
11,CCC(CC)C(=O)NCCc1cc2ccc(OC)cc2[nH]c1=O,-3.48
12,CN(C)CCCNC(NC(=O)/C=C/c1ccccc1)C(Cl)(Cl)Cl (stereo not shown),1.11
13,O=C(c1ccc(N2CCN(C(=O)c3ccc(F)cc3F)CC2)cc1)c1cccc(F)c1,-24.1
14,CCO[C@H]1OC(C(=O)NCc2ccccc2)=C[C@@H](C(C)(C)C)[C@@H]1CCCO,0.338
15,CCOc1ccc(/C=C2/C(=N)N3OC(C)=CC3=NC2=O)cc1OC,14.8
16,C#C[C@]1(O)CC[C@H]2[C@@H]3CCc4cc(OC)ccc4[C@H]3CC[C@@]21C,24.9
17,Cc1ccc(C2=CC(c3ccc(N(C)C)cc3)n3nnnc3N2)cc1 (stereo not shown),10.4
18,O=C(NCc1ccco1)c1cnn2c(C(F)(F)F)cc(-c3ccccc3)nc12,-0.784
19,CCC(CC)c1nnc(NC(=O)CCNC(=O)c2ccccc2Cl)s1,-14.5
20,O=C(CN1CCN(Cc2ccc(Cl)cc2)C1=O)N1CCC2(CC1)OCCO2,-12.5
21,CC(=O)OCc1c(C)cc(C)c(/C=C(/C#N)C(N)=O)c1C,17.4
22,S=C(NCCc1ccccn1)Nc1ccc(Cl)c(Cl)c1,13.4
23,O=C(COc1ccc(Cl)cc1)N1CCN(C/C=C/c2ccccc2)CC1,-70.7
24,COc1ccc(CNc2ncnc3c2[nH]c2cc(OC)c(OC)cc23)cc1,8.4
25,CCCNC(=O)OC[C@H]1O[C@H](CCO/N=C/c2ccc(C(=O)N3[C@H](c4ccc(C)cc4)[C@@H](C)CC[C@H]3C(=O)OC)cc2)C=C[C@@H]1Oc1ccc(OC)cc1,5.48
26,CN1CCN(C(=O)CC23CC4CC(CC(C4)C2)C3)CC1,-2.65
